# Test results reported in the supplement of paper PMC4604168 (melanoma cell lines).
# This is one part of the list. Repeats are few or missing, and single values can be far off.
# Tested on: A2058
# Experiment: cell count relative to DMSO control; melanoma cells; higher = more viable cells
# Settings: library dose: low library concentration; 72 h; first compound 0.4 µM
# 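Note: cell number obtained by counting DAPI-stained nuclei in high-throughput microscope images with image analysis software, screen run in 1,536-well plates.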
row,SMILES,cell count
1,CCCCCCCCCCCCCCCCCCOP(=O)([O-])OC1CC[N+](C)(C)CC1 [Perifosine] + Cn1cncc1[C@@](N)(c1ccc(Cl)cc1)c1ccc2c(c1)c(-c1cccc(Cl)c1)cc(=O)n2C [tipifarnib] (partner dose 0.01 µM),63.5%
2,Cn1sc(=O)n(Cc2ccccc2)c1=O + c1cc(-c2cnn3cc(-c4ccc(OCCN5CCCCC5)cc4)cnc23)ccn1 [Dorsomorphin] (partner dose 0.4 µM),86%
3,C[C@@H](N)c1ccc(C(=O)Nc2ccnc3[nH]ccc23)cc1 + COC(=O)c1sccc1S(=O)(=O)Nc1ccc(Nc2ccccc2)cc1OC [GSK0660] (partner dose 1 µM),77.3%
4,Cn1sc(=O)n(Cc2ccccc2)c1=O + Oc1cc(-c2nc(-c3ccccc3)[nH]c2-c2ccncc2)ccc1Cl [L779450] (partner dose 0.2 µM),101%
5,C[C@@H](N)c1ccc(C(=O)Nc2ccnc3[nH]ccc23)cc1 + C[C@@H](Oc1cc(-c2cnn(C3CCNCC3)c2)cnc1N)c1c(Cl)ccc(F)c1Cl [Crizotinib] (partner dose 0.2 µM),72%
6,Cn1sc(=O)n(Cc2ccccc2)c1=O + NCC(=O)Nc1ccc(-n2nc(C(F)(F)F)cc2-c2ccc3c(ccc4ccccc43)c2)cc1 [OSU03012] (partner dose 1 µM),93.2%
7,CCCCCCCCCCCCCCCCCCOP(=O)([O-])OC1CC[N+](C)(C)CC1 [Perifosine] + CC(C)CCN1c2nc(Nc3cc(F)c(O)c(F)c3)ncc2N(C)C(=O)C1C [BID1870] (partner dose 0.2 µM),110%
8,Cn1sc(=O)n(Cc2ccccc2)c1=O + Oc1nc(-c2ccc(C(F)(F)F)cc2)nc2c1CSCC2 [XAV939] (partner dose 2 µM),82.8%
9,C[C@@H](N)c1ccc(C(=O)Nc2ccnc3[nH]ccc23)cc1 + CC(C)CCN1c2nc(Nc3cc(F)c(O)c(F)c3)ncc2N(C)C(=O)C1C [BID1870] (partner dose 0.2 µM),87.4%
10,CCCCCCCCCCCCCCCCCCOP(=O)([O-])OC1CC[N+](C)(C)CC1 [Perifosine] + Oc1cc(-c2nc(-c3ccccc3)[nH]c2-c2ccncc2)ccc1Cl [L779450] (partner dose 0.2 µM),105%
11,C[C@@H](N)c1ccc(C(=O)Nc2ccnc3[nH]ccc23)cc1 + COc1ccc(COc2ccc(Cc3cnc(N)nc3N)cc2OC)cc1 [GW2580] (partner dose 1 µM),74.6%
12,CCCCCCCCCCCCCCCCCCOP(=O)([O-])OC1CC[N+](C)(C)CC1 [Perifosine] + Cn1cc(/C=C2\C(=O)Nc3cccnc32)c2ccccc21 [GW441756] (partner dose 0.4 µM),105%
13,Cn1sc(=O)n(Cc2ccccc2)c1=O + COc1ccc(-c2ccc3c(N4CCOCC4)nc(N4C[C@@H](C)O[C@@H](C)C4)nc3n2)cc1CO [KU0063794] (partner dose 0.02 µM),94.3%
14,C[C@@H](N)c1ccc(C(=O)Nc2ccnc3[nH]ccc23)cc1 + CCN(CC)CCNC(=O)c1c(C)[nH]c(/C=C2\C(=O)Nc3ccc(F)cc32)c1C [sunitinib] (partner dose 0.4 µM),88.9%
15,Cn1sc(=O)n(Cc2ccccc2)c1=O + COc1ccc(COc2ccc(Cc3cnc(N)nc3N)cc2OC)cc1 [GW2580] (partner dose 1 µM),88%
16,C[C@@H](N)c1ccc(C(=O)Nc2ccnc3[nH]ccc23)cc1 + Cn1nnc2c(C(N)=O)ncn2c1=O [temozolomide] (partner dose 2 µM),80.2%
17,Cn1sc(=O)n(Cc2ccccc2)c1=O + C=CCNC1=C2C[C@@H](C)C[C@H](OC)[C@H](O)[C@@H](C)/C=C(\C)[C@H](OC(N)=O)[C@@H](OC)/C=C\C=C(/C)C(=O)NC(=CC1=O)C2=O [Tanespimycin] (partner dose 0.002 µM),101%
18,CCCCCCCCCCCCCCCCCCOP(=O)([O-])OC1CC[N+](C)(C)CC1 [Perifosine] + c1cc(-c2cnn3cc(-c4ccc(OCCN5CCCCC5)cc4)cnc23)ccn1 [Dorsomorphin] (partner dose 0.4 µM),106%
19,CCCCCCCCCCCCCCCCCCOP(=O)([O-])OC1CC[N+](C)(C)CC1 [Perifosine] + CO[C@H]1C[C@@H]2CC[C@@H](C)[C@@](O)(O2)C(=O)C(=O)N2CCCC[C@H]2C(=O)O[C@H]([C@H](C)C[C@@H]2CC[C@@H](OCCO)[C@H](OC)C2)CC(=O)[C@H](C)/C=C(\C)[C@@H](O)[C@@H](OC)C(=O)[C@H](C)C[C@H](C)/C=C/C=C/C=C/1C [everolimus] (partner dose 0.02 µM),74.8%
20,Cn1sc(=O)n(Cc2ccccc2)c1=O + C=C(c1ccc(C(=O)O)cc1)c1cc2c(cc1C)C(C)(C)CCC2(C)C [Bexarotene] (partner dose 2 µM),119%

row,SMILES,cell count
1,C[C@@H](N)c1ccc(C(=O)Nc2ccnc3[nH]ccc23)cc1 + COc1cc2ncnc(Nc3ccc(Oc4ccccc4)cc3)c2cc1OC [SrcI1] (partner dose 2 µM),79.1%
2,Cn1sc(=O)n(Cc2ccccc2)c1=O + CCc1ccc(CCOc2ccc(CC3SC(=O)NC3=O)cc2)nc1 [pioglitazone] (partner dose 2 µM),94.5%
3,C[C@@H](N)c1ccc(C(=O)Nc2ccnc3[nH]ccc23)cc1 + CN(c1ncccc1CNc1nc(Nc2ccc3c(c2)CC(=O)N3)ncc1C(F)(F)F)S(C)(=O)=O [PF562271] (partner dose 0.08 µM),89.8%
4,Cn1sc(=O)n(Cc2ccccc2)c1=O + O=S(=O)(c1ccccc1)N(CC(F)(F)F)c1ccc(C(O)(C(F)(F)F)C(F)(F)F)cc1 [T0901317] (partner dose 1.4 µM),112%
5,CCCCCCCCCCCCCCCCCCOP(=O)([O-])OC1CC[N+](C)(C)CC1 [Perifosine] + CCN(CC)CCCCNc1ncc2cc(-c3cc(OC)cc(OC)c3)c(NC(=O)NC(C)(C)C)nc2n1 [PD173074] (partner dose 0.1 µM),95%
6,C[C@@H](N)c1ccc(C(=O)Nc2ccnc3[nH]ccc23)cc1 + O=C1NC(=O)/C(=C/c2ccc(-c3ccc(F)cc3O)o2)S1 [AS252424] (partner dose 1 µM),68.1%
7,C[C@@H](N)c1ccc(C(=O)Nc2ccnc3[nH]ccc23)cc1 + COc1ccc2c(c1)CCC1C2CCC2(C)C(NCCCCCCN3C(=O)C=CC3=O)CCC12 [U73122] (partner dose 0.4 µM),77%
8,CCCCCCCCCCCCCCCCCCOP(=O)([O-])OC1CC[N+](C)(C)CC1 [Perifosine] + COc1ccc(COc2ccc(Cc3cnc(N)nc3N)cc2OC)cc1 [GW2580] (partner dose 1 µM),98.5%
9,CCCCCCCCCCCCCCCCCCOP(=O)([O-])OC1CC[N+](C)(C)CC1 [Perifosine] + COC(=O)c1sccc1S(=O)(=O)Nc1ccc(Nc2ccccc2)cc1OC [GSK0660] (partner dose 1 µM),91.8%
10,C[C@@H](N)c1ccc(C(=O)Nc2ccnc3[nH]ccc23)cc1 + O=C(O)C(=O)Nc1sc2c(c1C(=O)O)CCNC2 [TCS401] (partner dose 1.66667 µM),95.7%
11,Cn1sc(=O)n(Cc2ccccc2)c1=O + COc1ccc2c(c1)CCC1C2CCC2(C)C(NCCCCCCN3C(=O)C=CC3=O)CCC12 [U73122] (partner dose 0.4 µM),92.9%
12,Cn1sc(=O)n(Cc2ccccc2)c1=O + O=C(O)[C@@H]1[O][Sb](=[O])([O][Sb]2(=[O])[O][C@H]([C@H](O)CO)[C@H](O)[C@H](C(=O)O)[O]2)[O][C@H]([C@H](O)CO)[C@@H]1O [stibogluconate] (partner dose 2 µM),82.5%
13,CCCCCCCCCCCCCCCCCCOP(=O)([O-])OC1CC[N+](C)(C)CC1 [Perifosine] + CCCCCCCCCCCC1=C(O)C(=O)C=C(O)C1=O [Embelin] (partner dose 1.2 µM),89.3%
14,C[C@@H](N)c1ccc(C(=O)Nc2ccnc3[nH]ccc23)cc1 + COc1cc(N2CCC(N3CCN(C)CC3)CC2)ccc1Nc1ncc(Cl)c(Nc2ccccc2S(=O)(=O)C(C)C)n1 [NVP-TAE684] (partner dose 0.08 µM),64.1%
15,CCCCCCCCCCCCCCCCCCOP(=O)([O-])OC1CC[N+](C)(C)CC1 [Perifosine] + Cn1c(=O)n(-c2ccc(C(C)(C)C#N)cc2)c2c3cc(-c4cnc5ccccc5c4)ccc3ncc21 [NVP-BEZ235] (partner dose 0.004 µM),100%
16,CCCCCCCCCCCCCCCCCCOP(=O)([O-])OC1CC[N+](C)(C)CC1 [Perifosine] + COc1cc2ncnc(Nc3ccc(Oc4ccccc4)cc3)c2cc1OC [SrcI1] (partner dose 2 µM),83.1%
17,Cn1sc(=O)n(Cc2ccccc2)c1=O + Nc1ccn([C@@H]2O[C@H](CO)[C@@H](O)C2(F)F)c(=O)n1 [gemcitabine] (partner dose 0.0004 µM),93.6%
18,Cn1sc(=O)n(Cc2ccccc2)c1=O + COC(=O)c1sccc1S(=O)(=O)Nc1ccc(Nc2ccccc2)cc1OC [GSK0660] (partner dose 1 µM),104%
19,C[C@@H](N)c1ccc(C(=O)Nc2ccnc3[nH]ccc23)cc1 + Oc1nc(-c2ccc(C(F)(F)F)cc2)nc2c1CSCC2 [XAV939] (partner dose 2 µM),79.2%
20,C[C@@H](N)c1ccc(C(=O)Nc2ccnc3[nH]ccc23)cc1 + CCc1ccc(CCOc2ccc(CC3SC(=O)NC3=O)cc2)nc1 [pioglitazone] (partner dose 2 µM),77.5%
